{"source": "paper PMC10928841", "about": "“Ames test study designs for nitrosamine mutagenicity testing: qualitative and quantitative analysis of key assay parameters” (Mutagenesis, 2023)", "key": {"E. coli WP2uvrA (pKM101) [1]": {"test_system": "E. coli WP2uvrA (pKM101)", "details": "plate incorporation, up to 5000 µg/plate"}, "S. typhimurium TA1535 [2]": {"test_system": "S. typhimurium TA1535", "experiment": "Ames test, pre-incubation method, TA1535", "details": "S9 hamster, up to 5000 µg/plate"}, "S. typhimurium TA1535 [3]": {"test_system": "S. typhimurium TA1535", "experiment": "Ames test, plate incorporation method, TA1535", "details": "S9 hamster, up to 5000 µg/plate"}, "[4]": {"test_system": "S. typhimurium TA98, TA100, TA1535, TA1537 and E. coli WP2uvrA pKM101", "experiment": "Ames test, pre-incubation method, overall result of five strains", "details": "pre-incubation, up to 5000 µg/plate"}, "E. coli WP2uvrA (pKM101) [5]": {"test_system": "E. coli WP2uvrA (pKM101)", "experiment": "Ames test, pre-incubation method, WP2uvrA (pKM101)", "details": "up to 5000 µg/plate"}, "S. typhimurium TA100 [6]": {"test_system": "S. typhimurium TA100", "experiment": "Ames test, plate incorporation method, TA100", "details": "S9 hamster, up to 5000 µg/plate"}, "[7]": {"test_system": "S. typhimurium TA98, TA100, TA1535, TA1537 and E. coli WP2uvrA pKM101", "experiment": "Ames test, plate incorporation method, overall result of five strains", "details": "for Ames test Result: up to 5000 µg/plate"}, "S. typhimurium TA100 [8]": {"test_system": "S. typhimurium TA100", "experiment": "Ames test, pre-incubation method, TA100", "details": "S9 hamster, up to 5000 µg/plate"}, "[9]": {"details": "S9 hamster, vehicle acetonitrile"}}, "note": "Where two headings read alike, the source gives them in different places."}
{"smiles": "CN(C)N=O", "note": "[NDMA, N-Nitrosodimethylamine]", "values": [{"measurement": "Ames test strain WP2*", "setting": "E. coli WP2uvrA (pKM101) [1]; S9 hamster, vehicle DMSO", "value": "+ (positive for mutagenicity, if a biologically relevant increase in the mean number of revertant colonies above a threshold of 2-fold (TA98, TA100, WP2 uvrA))"}, {"measurement": "Ames test strain WP2*", "setting": "E. coli WP2uvrA (pKM101) [1]; S9 hamster, vehicle methanol", "value": "+ (positive for mutagenicity, if a biologically relevant increase in the mean number of revertant colonies above a threshold of 2-fold (TA98, TA100, WP2 uvrA))"}, {"measurement": "Ames test strain WP2*", "setting": "E. coli WP2uvrA (pKM101) [1]; S9 hamster, vehicle water", "value": "+ (positive for mutagenicity, if a biologically relevant increase in the mean number of revertant colonies above a threshold of 2-fold (TA98, TA100, WP2 uvrA))"}, {"measurement": "Ames test strain WP2*", "setting": "E. coli WP2uvrA (pKM101) [1]; S9 rat, vehicle methanol", "value": "+ (positive for mutagenicity, if a biologically relevant increase in the mean number of revertant colonies above a threshold of 2-fold (TA98, TA100, WP2 uvrA))"}, {"measurement": "Ames test strain WP2*", "setting": "E. coli WP2uvrA (pKM101) [1]; S9 rat, vehicle water", "value": "+ (positive for mutagenicity, if a biologically relevant increase in the mean number of revertant colonies above a threshold of 2-fold (TA98, TA100, WP2 uvrA))"}, {"measurement": "Ames test strain TA1535", "setting": "S. typhimurium TA1535 [2]; vehicle acetone", "value": "+ (positive for mutagenicity, if a biologically relevant increase in the mean number of revertant colonies above a threshold of 2-fold (TA98, TA100, WP2 uvrA) or 3-fold (TA1535, TA1537))"}, {"measurement": "Ames test strain TA1535", "setting": "S. typhimurium TA1535 [2]; vehicle acetonitrile", "value": "+ (positive for mutagenicity, if a biologically relevant increase in the mean number of revertant colonies above a threshold of 2-fold (TA98, TA100, WP2 uvrA) or 3-fold (TA1535, TA1537))"}, {"measurement": "Ames test strain TA1535", "setting": "S. typhimurium TA1535 [2]; vehicle methanol", "value": "+ (positive for mutagenicity, if a biologically relevant increase in the mean number of revertant colonies above a threshold of 2-fold (TA98, TA100, WP2 uvrA) or 3-fold (TA1535, TA1537))"}, {"measurement": "Ames test strain TA1535", "setting": "S. typhimurium TA1535 [2]; vehicle water", "value": "+ (positive for mutagenicity, if a biologically relevant increase in the mean number of revertant colonies above a threshold of 2-fold (TA98, TA100, WP2 uvrA) or 3-fold (TA1535, TA1537))"}, {"measurement": "Ames test strain TA1535", "setting": "S. typhimurium TA1535 [3]; vehicle DMSO", "value": "+ (positive for mutagenicity, if a biologically relevant increase in the mean number of revertant colonies above a threshold of 2-fold (TA98, TA100, WP2 uvrA) or 3-fold (TA1535, TA1537))"}, {"measurement": "Ames test strain TA1535", "setting": "S. typhimurium TA1535 [3]; vehicle methanol", "value": "+ (positive for mutagenicity, if a biologically relevant increase in the mean number of revertant colonies above a threshold of 2-fold (TA98, TA100, WP2 uvrA) or 3-fold (TA1535, TA1537))"}, {"measurement": "Ames test strain TA1535", "setting": "S. typhimurium TA1535 [3]; vehicle water", "value": "+ (positive for mutagenicity, if a biologically relevant increase in the mean number of revertant colonies above a threshold of 2-fold (TA98, TA100, WP2 uvrA) or 3-fold (TA1535, TA1537))"}, {"measurement": "Ames test Result", "setting": "[4]; S9 hamster, vehicle DHF", "value": "Positive"}, {"measurement": "Ames test Result", "setting": "[4]; S9 hamster, vehicle DMF", "value": "Negative"}, {"measurement": "Ames test Result", "setting": "[4]; S9 hamster, vehicle DMSO", "value": "Positive"}, {"measurement": "Ames test Result", "setting": "[4]; S9 hamster, vehicle NMP", "value": "Negative"}, {"measurement": "Ames test Result", "setting": "[4]; S9 hamster, vehicle acetone", "value": "Positive"}, {"measurement": "Ames test Result", "setting": "[4]; [9]", "value": "Positive"}, {"measurement": "Ames test Result", "setting": "[4]; S9 hamster, vehicle methanol", "value": "Positive"}, {"measurement": "Ames test Result", "setting": "[4]; S9 hamster, vehicle water", "value": "Positive"}, {"measurement": "Ames test Result", "setting": "[4]; S9 rat, vehicle DHF", "value": "Negative"}, {"measurement": "Ames test Result", "setting": "[4]; S9 rat, vehicle DMF", "value": "Negative"}, {"measurement": "Ames test Result", "setting": "[4]; S9 rat, vehicle DMSO", "value": "Negative"}, {"measurement": "Ames test Result", "setting": "[4]; S9 rat, vehicle NMP", "value": "Negative"}, {"measurement": "Ames test Result", "setting": "[4]; S9 rat, vehicle acetone", "value": "Negative"}, {"measurement": "Ames test Result", "setting": "[4]; S9 rat, vehicle acetonitrile", "value": "Negative"}, {"measurement": "Ames test Result", "setting": "[4]; S9 rat, vehicle methanol", "value": "Positive"}, {"measurement": "Ames test Result", "setting": "[4]; S9 rat, vehicle water", "value": "Positive"}, {"measurement": "Ames test strain WP2*", "setting": "E. coli WP2uvrA (pKM101) [5]; S9 hamster, vehicle DMSO", "value": "+ (positive for mutagenicity, if a biologically relevant increase in the mean number of revertant colonies above a threshold of 2-fold (TA98, TA100, WP2 uvrA))"}, {"measurement": "Ames test strain WP2*", "setting": "E. coli WP2uvrA (pKM101) [5]; S9 hamster, vehicle acetone", "value": "+ (positive for mutagenicity, if a biologically relevant increase in the mean number of revertant colonies above a threshold of 2-fold (TA98, TA100, WP2 uvrA))"}, {"measurement": "Ames test strain WP2*", "setting": "E. coli WP2uvrA (pKM101) [5]; [9]", "value": "+ (positive for mutagenicity, if a biologically relevant increase in the mean number of revertant colonies above a threshold of 2-fold (TA98, TA100, WP2 uvrA))"}, {"measurement": "Ames test strain WP2*", "setting": "E. coli WP2uvrA (pKM101) [5]; S9 hamster, vehicle methanol", "value": "+ (positive for mutagenicity, if a biologically relevant increase in the mean number of revertant colonies above a threshold of 2-fold (TA98, TA100, WP2 uvrA))"}, {"measurement": "Ames test strain WP2*", "setting": "E. coli WP2uvrA (pKM101) [5]; S9 hamster, vehicle water", "value": "+ (positive for mutagenicity, if a biologically relevant increase in the mean number of revertant colonies above a threshold of 2-fold (TA98, TA100, WP2 uvrA))"}, {"measurement": "Ames test strain WP2*", "setting": "E. coli WP2uvrA (pKM101) [5]; S9 rat, vehicle methanol", "value": "+ (positive for mutagenicity, if a biologically relevant increase in the mean number of revertant colonies above a threshold of 2-fold (TA98, TA100, WP2 uvrA))"}, {"measurement": "Ames test strain WP2*", "setting": "E. coli WP2uvrA (pKM101) [5]; S9 rat, vehicle water", "value": "+ (positive for mutagenicity, if a biologically relevant increase in the mean number of revertant colonies above a threshold of 2-fold (TA98, TA100, WP2 uvrA))"}, {"measurement": "Ames test strain TA100", "setting": "S. typhimurium TA100 [6]; vehicle DMSO", "value": "+ (positive for mutagenicity, if a biologically relevant increase in the mean number of revertant colonies above a threshold of 2-fold (TA98, TA100, WP2 uvrA))"}, {"measurement": "Ames test strain TA100", "setting": "S. typhimurium TA100 [6]; vehicle methanol", "value": "+ (positive for mutagenicity, if a biologically relevant increase in the mean number of revertant colonies above a threshold of 2-fold (TA98, TA100, WP2 uvrA))"}, {"measurement": "Ames test strain TA100", "setting": "S. typhimurium TA100 [6]; vehicle water", "value": "+ (positive for mutagenicity, if a biologically relevant increase in the mean number of revertant colonies above a threshold of 2-fold (TA98, TA100, WP2 uvrA))"}, {"measurement": "Ames test Result", "setting": "[7]; S9 hamster, vehicle DMSO", "value": "Positive"}, {"measurement": "Ames test Result", "setting": "[7]; S9 hamster, vehicle methanol", "value": "Positive"}, {"measurement": "Ames test Result", "setting": "[7]; S9 hamster, vehicle water", "value": "Positive"}, {"measurement": "Ames test Result", "setting": "[7]; S9 none, vehicle DMSO", "value": "Negative"}, {"measurement": "Ames test Result", "setting": "[7]; S9 none, vehicle methanol", "value": "Negative"}, {"measurement": "Ames test Result", "setting": "[7]; S9 none, vehicle water", "value": "Negative"}, {"measurement": "Ames test Result", "setting": "[7]; S9 rat, vehicle DMSO", "value": "Negative"}, {"measurement": "Ames test Result", "setting": "[7]; S9 rat, vehicle methanol", "value": "Positive"}, {"measurement": "Ames test Result", "setting": "[7]; S9 rat, vehicle water", "value": "Positive"}, {"measurement": "mutagenicity in any bacterial strain", "setting": "[7]; absence of S9-mix, water, methanol or DMSO as vehicle", "value": "not mutagenic"}, {"measurement": "Ames test strain TA100", "setting": "S. typhimurium TA100 [8]; vehicle DHF", "value": "+ (positive for mutagenicity, if a biologically relevant increase in the mean number of revertant colonies above a threshold of 2-fold (TA98, TA100, WP2 uvrA))"}, {"measurement": "Ames test strain TA100", "setting": "S. typhimurium TA100 [8]; vehicle DMSO", "value": "+ (positive for mutagenicity, if a biologically relevant increase in the mean number of revertant colonies above a threshold of 2-fold (TA98, TA100, WP2 uvrA))"}, {"measurement": "Ames test strain TA100", "setting": "S. typhimurium TA100 [8]; vehicle acetone", "value": "+ (positive for mutagenicity, if a biologically relevant increase in the mean number of revertant colonies above a threshold of 2-fold (TA98, TA100, WP2 uvrA))"}, {"measurement": "Ames test strain TA100", "setting": "S. typhimurium TA100 [8]; vehicle acetonitrile", "value": "+ (positive for mutagenicity, if a biologically relevant increase in the mean number of revertant colonies above a threshold of 2-fold (TA98, TA100, WP2 uvrA))"}, {"measurement": "Ames test strain TA100", "setting": "S. typhimurium TA100 [8]; vehicle methanol", "value": "+ (positive for mutagenicity, if a biologically relevant increase in the mean number of revertant colonies above a threshold of 2-fold (TA98, TA100, WP2 uvrA))"}, {"measurement": "Ames test strain TA100", "setting": "S. typhimurium TA100 [8]; vehicle water", "value": "+ (positive for mutagenicity, if a biologically relevant increase in the mean number of revertant colonies above a threshold of 2-fold (TA98, TA100, WP2 uvrA))"}]}
